Results published in the supplement of paper PMC12217912.
The list shows a part of the results. The full chains were built here from the parent and the listed change. Values near 0.05 are background.

B1: TEV protease; numbered along this chain (parent)
chain: MGESLFKGPRDYNPISSSICHLTNESDGHTTSLYGIGFGPFIITNKHLFRRNNGTLVVQSLHGVFKVKDTTTLQQHLVDGRDMIIIRMPKDFPPFPQKLKFREPQREERICLVTTNFQTKSMSSMVSDTSCTFPSGDGIFWKHWIQTKDGQCGSPLVSTRDGFIVGIHSASNFTNTNNYFTSVPKNFMELLTNQEAQQWVSGWRLNADSVLWGGHKVFMVKPEEPFQPVKEATQL

Variants of: B1
Test: raw area under fraction-flipped curve 0-4 h after induction (AUC4h, not background-subtracted), DNA-recorder readout of cleavage of the substrate (dimensionless); higher = more cleavage of the substrate by the protease variant
Conditions: temperature: 34 °C; time window: 0-4 h after rhamnose induction
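Also: Bxb1 expression induced with 0.2% (w/v) L-rhamnose at OD600 near 0.5, cultures sampled hourly, flipped fraction per protease–substrate barcode pair counted by paired-end Illumina sequencing.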

| Variant | area with substrate ENLYFCS | area with substrate ENLYFES | area with substrate ENLYFFS | area with substrate ENLYFGS | area with substrate ENLYFHS | area with substrate ENLYFIS | area with substrate ENLYFKS | area with substrate ENLYFMS | area with substrate ENLYFWS | area with substrate ENLYFDS |
| --- | --- | --- | --- | --- | --- | --- | --- | --- | --- | --- |
| N186V | 0.0536 | 0.047 | 0.0475 | 0.0517 | 0.0586 | 0.0485 | 0.0663 | 0.0427 | 0.019 | – |
| T192S | 0.0512 | 0.0591 | – | – | – | 0.0451 | – | 0.0628 | 0.0683 | 0.0609 |
| V200Q | 0.0559 | – | – | – | – | 0.0632 | – | – | – | – |
| A207I | 0.0553 | – | 0.0515 | 0.0656 | – | – | 0.0706 | 0.0661 | 0.038 | 0.0661 |
| D208I | 0.0475 | 0.0562 | 0.0669 | 0.0681 | 0.0676 | 0.0457 | 0.068 | 0.0626 | 0.0633 | 0.0616 |
| D208W | 0.0547 | 0.0554 | 0.0739 | 0.0622 | 0.0553 | 0.0616 | 0.0716 | 0.0682 | – | 0.0446 |
| H215V | 0.0588 | – | 0.0388 | – | – | – | – | 0.063 | 0.051 | 0.0618 |
| K216N | 0.0627 | 0.0572 | – | – | 0.0618 | 0.0587 | 0.0581 | 0.0649 | – | 0.0598 |
| K216P | 0.074 | – | – | – | – | 0.0568 | 0.0482 | – | 0.0567 | – |
| F218R | 0.0596 | 0.0653 | – | – | 0.0661 | 0.0532 | 0.0626 | 0.0648 | 0.0498 | – |
| M219F | 0.0706 | 0.0881 | 0.0527 | 0.0607 | – | 0.049 | – | 0.0739 | – | 0.0444 |
| K221E | 0.0596 | – | 0.0652 | 0.0483 | 0.0657 | 0.0612 | 0.0593 | 0.0646 | 0.0529 | 0.0571 |
| F226D | 0.102 | 0.0665 | – | – | 0.0462 | 0.0508 | – | – | – | 0.0146 |
| Y12Q | – | 0.1 | 0.061 | 0.0539 | 0.0633 | 0.0629 | 0.0644 | 0.0716 | 0.0558 | 0.0546 |
| I15N | – | 0.0683 | 0.0422 | 0.0403 | 0.0567 | 0.0519 | 0.0574 | 0.0538 | 0.0424 | 0.0514 |
| N24F | – | 0.0573 | 0.0315 | 0.0511 | 0.0702 | 0.0646 | 0.051 | 0.0712 | 0.054 | 0.062 |
| K46N | – | – | – | – | 0.0429 | 0.059 | – | – | 0.0639 | 0.0557 |
| L56H | – | – | – | – | – | – | 0.0336 | – | – | 0.0378 |
| S60T | – | 0.0631 | 0.052 | – | 0.0604 | 0.0632 | – | 0.062 | 0.0489 | 0.0635 |
| V64D | – | 0.0724 | 0.0178 | – | 0.0441 | 0.0502 | 0.0527 | 0.04 | 0.0568 | 0.065 |
| D69G | – | 0.068 | 0.0645 | – | 0.0616 | 0.0539 | – | 0.0592 | – | 0.0566 |
| G80E | – | 0.0699 | 0.0796 | – | 0.0653 | 0.057 | 0.0605 | 0.0791 | 0.0525 | 0.0855 |
| R106K | – | 0.0491 | – | – | 0.0562 | – | – | – | – | 0.0618 |
| I145E | – | – | 0.0501 | – | 0.0498 | 0.0608 | 0.0444 | 0.0801 | – | 0.067 |
| T159C | – | 0.0451 | 0.0652 | – | – | 0.0329 | – | – | – | 0.0328 |
| H168V | – | 0.0638 | – | 0.0497 | 0.061 | 0.0528 | – | 0.0566 | 0.0429 | 0.0266 |
| P184E | – | 0.0442 | 0.0577 | – | 0.0497 | 0.038 | 0.045 | 0.0491 | – | 0.0522 |
| N193S | – | 0.0414 | – | – | – | 0.0365 | – | – | 0.0487 | 0.0552 |
| W199G | – | 0.063 | 0.0689 | – | 0.0454 | 0.0565 | 0.0645 | 0.0526 | 0.0613 | 0.0575 |

Same assay, conditions: temperature: 34 °C; time window: 0-4 h after rhamnose induction

| Variant | area with substrate ENLYFNS | area with substrate ENLYFPS | area with substrate ENLYFSS | area with substrate ENLYFTS | area with substrate ENLYFYS | area with substrate ENLYFRS | area with substrate ENLYFVS | area with substrate ENLYFLS |
| --- | --- | --- | --- | --- | --- | --- | --- | --- |
| T192S | 0.0652 | 0.0428 | 0.0579 | 0.0649 | 0.0505 | – | – | – |
| V200Q | 0.0693 | 0.0544 | – | – | 0.0494 | – | – | – |
| A207I | 0.053 | 0.0449 | 0.0544 | – | 0.0621 | 0.0483 | 0.0677 | – |
| D208I | 0.0641 | 0.0598 | 0.0569 | 0.06 | 0.0465 | 0.063 | 0.0764 | – |
| D208W | 0.0565 | 0.0595 | – | – | 0.063 | – | 0.0686 | 0.0568 |
| H215V | – | – | – | 0.0576 | 0.0554 | 0.0587 | 0.0512 | 0.0773 |
| K216N | 0.0427 | 0.0599 | 0.0636 | – | – | 0.0709 | – | 0.0479 |
| K216P | 0.0426 | – | – | – | – | – | – | – |
| F218R | 0.0745 | 0.0658 | 0.0597 | 0.0572 | – | 0.0741 | – | – |
| M219F | 0.0552 | 0.0568 | – | 0.0979 | 0.069 | 0.0568 | 0.0559 | 0.0753 |
| K221E | 0.066 | 0.0561 | 0.0581 | 0.0534 | 0.0805 | 0.0569 | 0.0662 | 0.0793 |
| F226D | – | 0.0402 | – | 0.0629 | 0.0528 | 0.0583 | 0.0106 | 0.0668 |
| Y12Q | 0.0686 | 0.057 | 0.0439 | 0.0522 | 0.0682 | – | – | 0.0546 |
| I15N | 0.0644 | 0.046 | – | 0.0522 | 0.0725 | 0.043 | 0.0663 | – |
| N24F | 0.0634 | 0.0718 | 0.06 | 0.0583 | – | 0.0564 | 0.062 | 0.0539 |
| K46N | 0.065 | 0.0542 | – | 0.0506 | – | 0.044 | 0.057 | 0.0851 |
| L56H | – | 0.0485 | 0.0503 | 0.0307 | – | – | – | – |
| S60T | – | 0.0594 | 0.0645 | 0.0719 | 0.0642 | 0.0686 | – | 0.058 |
| V64D | 0.0589 | 0.0494 | – | 0.0573 | 0.0597 | – | 0.0569 | – |
| D69G | – | 0.0502 | – | – | – | 0.0622 | – | – |
| G80E | 0.0765 | 0.0523 | 0.0696 | 0.066 | 0.0461 | 0.0496 | 0.0455 | 0.0488 |
| R106K | – | 0.0619 | – | – | – | 0.0589 | – | 0.0533 |
| I145E | 0.0656 | 0.0582 | – | 0.0662 | – | – | 0.0183 | – |
| T159C | – | – | – | – | – | – | 0.0566 | – |
| H168V | 0.0672 | 0.048 | 0.0582 | – | 0.04 | – | 0.0635 | – |
| P184E | 0.0427 | 0.0504 | 0.0529 | 0.0535 | – | 0.0381 | – | – |
| N193S | 0.0665 | 0.055 | – | – | – | – | – | – |
| W199G | 0.0561 | 0.0563 | 0.0606 | 0.046 | – | – | 0.062 | 0.0608 |
